Assay results: paper PMC12136788
Residue numbers refer to the chain shown, from its start. This is one part of the list.

T1: UNK ZnF1-3 (human, UniProt Q9C0B0 31-174)
T1 sequence: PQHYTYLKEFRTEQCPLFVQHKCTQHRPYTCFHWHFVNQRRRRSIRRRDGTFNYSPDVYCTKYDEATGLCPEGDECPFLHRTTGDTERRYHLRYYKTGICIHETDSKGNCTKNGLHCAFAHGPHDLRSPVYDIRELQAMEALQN

B1: chr5:135508174:135508175:+_ENSG00000113658_ENST00000545279|hu_hu|FALSE|FALSE (ssRNA)
RNA: GGGAGUUCUACAGUCCGACGAUCACUAGUAGAAGAUGCAUGAAAAGCUUCUCCAACACGAUUGUUUAAUUCAUAGUAGACUAUUGAACACCAAUGUUUAGGCUCUUCAUAGGCAACAGGCUGAACAUCCCUGCUGGAUAUACUCAACAGAGGAUUGAGCAUCA
B2: chr1:60041781:60041782:+_ENSMUSG00000041040_ENSMUST00000036540|mus_hu|mus_mus_mus_hu_False|28_108 (ssRNA)
RNA: GGGAGUUCUACAGUCCGACGAUCAAGAGGAGUGAAUUAAAGUAAAUGCAGUAGUGGCAAAUUUUCUUUUAUUUUCCUUCACAAAAGAAAAUCUUUAUAACCCAGUCCAAUCCCAGAACAUAGUGAAAGCUAUAAAUUCUGACUCAACAGAGGAUUGAGCAUCA
B3: chr2:153581767:153581768:+_ENSMUSG00000027479_ENSMUST00000028981|mus_hu|FALSE|FALSE (ssRNA)
RNA: GGGAGUUCUACAGUCCGACGAUCCACAGGAAUUAUUUUGUCAACACCCAUUCUCUUAAAACCUGCUUGUAGUAUUUUGAAGUUCUGGAUGUACUCGUGUUCUAGCUUAGCUUGGAAUUUCACUUUCUUCAAGGCAAUGGAGCCCAACAGAGGAUUGAGCAUCA
B4: chr11:77340908:77340909:-_ENSG00000074201_ENST00000525064|hu_mus|FALSE|FALSE (ssRNA)
RNA: GGGAGUUCUACAGUCCGACGAUCGUUUGGAUCCCUGGACACCGCAUGUAAACUAAUGGUGGGGUAUUCCAGUGAGAAUCCUAAUCCCGAACCAUCUAACCAGGACAGGCGGCUCUCCGCGAUGUAAAGCGUGCCGGUGCCGAGCAACAGAGGAUUGAGCAUCA
B5: 122144004_122144124_3561_3pUTR_ENSG00000114030_ENST00000344337|human|control|control (ssRNA)
RNA: GGGAGUUCUACAGUCCGACGAUCCACACUCUUGGCUGAUAAAUGUCCUUUGUCUUUGACUCUUUCUAGUUUGAAUGAAGUGGAUUUUUUAAAAGUUUAAAUCAGGUCACAUAAGUUGGCUGCUUAAAUAACAUCAUGAUGAGGCAACAGAGGAUUGAGCAUCA
B6: 100373906_100380083_1001_CDS_ENSG00000136925_ENST00000341170|human|control|control (ssRNA)
RNA: GGGAGUUCUACAGUCCGACGAUCGACUUCCACAUAAAGUCUGGUAGCCAAUUUGCUUCCACCAACUGUCCCAUUGAUUCCUUCUGCAGCAAUUCGAAUCUUGCCUGUGAGGUGCAGGUGCUGACACAGAGCUGUCUGCCAGGCCAACAGAGGAUUGAGCAUCA
B7: chr1:39494564:39494565:+_ENSG00000168653_ENST00000372967|hu_hu|hu_hu_hu_mus_True|48_68 (ssRNA)
RNA: GGGAGUUCUACAGUCCGACGAUCAUGCAUUCGCCUCAUCGUUUUGUACCGAAGCAAGCACUCUUCGAAAUCAUCAUACUCUAUCUUGCACUCUUUCUUCGCCCGGGUCCCACCGAUCCCGUGUGCACACUCUAUCCACUCUUUCAACAGAGGAUUGAGCAUCA
B8: chr2:9570881:9570882:+_ENSG00000119203_ENST00000238112|hu_mus|hu_hu_hu_mus_False|58_98 (ssRNA)
RNA: GGGAGUUCUACAGUCCGACGAUCACUUGUCUUCUGAAGAAACCAGGGCAGGGCUCCACAGUGAUCCAAAUGGAAAUGACUAAUUAACAGAAGGUCGAUCUCAGCUGGGUCGAUAAGGUCAAUGUAAGGAAGGGCAUCCAUUCCCAACAGAGGAUUGAGCAUCA
B9: 140561975_140562095_3098_CDS_ENSMUSG00000036622_ENSMUST00000037055|mouse|control|control (ssRNA)
RNA: GGGAGUUCUACAGUCCGACGAUCCACACUCAGCAGCGCCCCUGGCGGCCGCGCUCGCACCAAGGUCAGUGCAGGGCCUGUGCGGCUCAUGAGCACCGCAACCGUGGUGGUGAUGACCAGGUCAAUGGCCAAGAACUGUAGGUCCAACAGAGGAUUGAGCAUCA
B10: chr7:106468345:106468346:+_ENSMUSG00000055407_ENSMUST00000127492|mus_mus|FALSE|FALSE (ssRNA)
RNA: GGGAGUUCUACAGUCCGACGAUCACCAAACAUUGCUUGAGGAACCACGGUCAGUUUUGUCCAGUACACUUGAGAGACAGAAUAAGACCUGGAGAGCUUUGUUUGUAAACAGUAGAAAUUAAAGGGCAUUUCUUGUGAGUGGAGCAACAGAGGAUUGAGCAUCA
B11: chr15:57523399:57523400:+_ENSG00000140262_ENST00000343827|hu_hu|motif|central (ssRNA)
RNA: GGGAGUUCUACAGUCCGACGAUCAUCUUGCAUAAAGAAAGUGCUAGCGAACAUACUGGUUGGUGGCUUAGGAGAUGGAUAACGGGGAGAUUCACGGUUGAAAUCAUCUGAAUUUGGGGAUGGUGCAUAUACCGUUUUCCCAUUCAACAGAGGAUUGAGCAUCA
B12: chr12:493273:493274:-_ENSG00000073614_ENST00000399788|hu_mus|hu_hu_hu_mus_False|38_58 (ssRNA)
RNA: GGGAGUUCUACAGUCCGACGAUCUUUUCUCUCCACCACAGGGAUCUUCAAUGUAGAUCCUUGAAGUUCCCAAAAUUUUGCUAGUUGAUCCAAGAAGUCCAAUCUCACUCUAGUCAUUGCCUCAAGUUCAUUCAGGCGCUGGACCAACAGAGGAUUGAGCAUCA
B13: 13810621_13810741_1690_CDS_ENSMUSG00000022682_ENSMUST00000023363|mouse|control|control (ssRNA)
RNA: GGGAGUUCUACAGUCCGACGAUCCACACAAGGGUCAAAGGGGAAGAAAGUGUCCAGUGGGUUGGUGCAGGUCUGCACGGAGUCUCCACCAGCGGUGCUGCGGAUAACGGGGAGCAUCUGGCGACUGUUCCUCUCCAUGAUGGUCAACAGAGGAUUGAGCAUCA
B14: chr17:57652765:57652766:+_ENSG00000108406_ENST00000251241|hu_mus|motif|central (ssRNA)
RNA: GGGAGUUCUACAGUCCGACGAUCAUCAUAAUCAUAGUCAACAGACUCCGCCAUCUGAAAGAGCAGCUCGCAACUCUUCUCGGUCUCAAACUGGCCAGUCAGAAAAACUAAGAUGUCUCCAGCCAUUUCAUUCAAAUGAAUAUCCAACAGAGGAUUGAGCAUCA
B15: chr2:160604994:160604995:+_ENSG00000136536_ENST00000409591|hu_mus|FALSE|FALSE (ssRNA)
RNA: GGGAGUUCUACAGUCCGACGAUCUCUUGAAGACUCAUCCCUUCCCUCUCGCCUCCUUCUCGAGAACAAAGGUGUGCAUCUAUUUCUAAGUGAAGAAGACAACCAUGGUCCUGAAUUUCUACCUUCUGAUUCUUGGUUAAAAUUCAACAGAGGAUUGAGCAUCA
B16: chr12:21919153:21919154:-_ENSG00000121361_ENST00000240662|hu_mus|motif|central (ssRNA)
RNA: GGGAGUUCUACAGUCCGACGAUCAUACAGGGGGCUACGCUUGUCAAUCACGUGGCAGAUGAUCAAUGGGGCCACGGGGAAGAUAUUAUUGCUCUCGAUGGGAUUAUCAACAGGAAUGUCCUGCUGAUGAAUAGGCACCACCUCCAACAGAGGAUUGAGCAUCA
B17: chr12:32445735:32445736:+_ENSMUSG00000035933_ENSMUST00000036862|mus_mus|motif|central (ssRNA)
RNA: GGGAGUUCUACAGUCCGACGAUCUCGAGCUCUUGCAAUAAAGAGUAGAUCAUUCUCUAUUACUUCUAUUCCAGAAAGAUCGGUUCCUUGAGAAAGAUAAUCAAGUUCAUUGAGACUCUGAGCAGCUUUUGUUAUCUCUCUACUCAACAGAGGAUUGAGCAUCA
B18: chr2:48026839:48026840:+_ENSG00000116062_ENST00000540021|hu_hu|hu_hu_hu_mus_False|38_108 (ssRNA)
RNA: GGGAGUUCUACAGUCCGACGAUCAUAGUGUGCCACUAGCGUCCUAAAUCUGGAACAGUGGCGGUCAUCCGAAAACUGGCCGAUGAAAAACUUGCCCAGUGAAGUAUCCACAAAGCAAACACCAUACACACGAGUGUGACCAGACAACAGAGGAUUGAGCAUCA
B19: chr7:30948173:30948174:-_ENSMUSG00000037029_ENSMUST00000062181|mus_hu|FALSE|FALSE (ssRNA)
RNA: GGGAGUUCUACAGUCCGACGAUCCCCAACUAAGUCCCUUGAUGAUUCUUUCCUACACAACCUCCCUCAUGAUUUCAGUCCAGGUUGUGUUUCAAACUGAAAACUUCAAAAAGGUGUGGCCUUAAAACAAAUACGAUCUGAGAACAACAGAGGAUUGAGCAUCA
B20: chrX:98862621:98862622:+_ENSMUSG00000034160_ENSMUST00000044475|mus_hu|mus_mus_mus_hu_False|8_58 (ssRNA)
RNA: GGGAGUUCUACAGUCCGACGAUCCUGCAUCUCCUUUAGAGUGUUUCCCAUAUUAGAGUAGGCAUCAGCAAAGGUAGGACUAAUUCGAAUAGCCUCCUUAUAAUGCAUCAGAGCUUCCUGCAGUUUUCCCUGCUGUUGCAGUACCAACAGAGGAUUGAGCAUCA
B21: chr13:97419678:97419679:-_ENSMUSG00000021670_ENSMUST00000022176|mus_hu|FALSE|FALSE (ssRNA)
RNA: GGGAGUUCUACAGUCCGACGAUCUUUUAUUACAACAUAUACAGAUUUGAUACAGUUUACAAAAAAAACUAGAUUUUUCAACUAAAUAAAAAUGUCUUUUAAGCAAUUAAAGUUGGCUUAGAGACAUGGUAUUUUUCUUUCAAACAACAGAGGAUUGAGCAUCA
B22: chr1:39494564:39494565:+_ENSG00000168653_ENST00000372967|hu_hu|hu_hu_hu_mus_True|78_78 (ssRNA)
RNA: B7 RNA with G57A, U64A, A69G, A75G, U76A, U93C, C96U

Target: T1, UNK ZnF1-3
Test: nsRBNS (natural sequence RNA bind-n-seq); RBNS binding buffer (assumed for nsRBNS): 25 mM Tris pH 7.5, 150 mM KCl, 3 mM MgCl2, 0.01% Triton X-100, 500 ug/ml BSA, 20 U/ml SUPERase-In, 4 C; UNK is unkempt and MSI1 is Musashi-1; names of the RNAs are library labels; protein concentration not given here; high values mean tight binding

Question: B1 was tested. Which binding signal did it give?
Answer: 2.02 enrichment R

Question: How did the binding signal turn out when B2 was run?
Answer: 0.616 enrichment R

Question: B3 was tested. Which binding signal did it give?
Answer: 0.859 enrichment R

Question: Which binding signal does the source give for B4 here?
Answer: 0.705 enrichment R

Question: Which binding signal does the source give for B5 here?
Answer: 1.15 enrichment R

Question: How did the binding signal turn out when B6 was run?
Answer: 0.99 enrichment R

Question: With B7 as the binder, how does the binding signal read?
Answer: 0.681 enrichment R

Question: B8 was tested. Which binding signal did it give?
Answer: 1.35 enrichment R

Question: B9 was tested. Which binding signal did it give?
Answer: 0.722 enrichment R

Question: Which binding signal does the source give for B10 here?
Answer: 1.31 enrichment R

Question: With B11 as the binder, how does the binding signal read?
Answer: 1.17 enrichment R

Question: How did the binding signal turn out when B12 was run?
Answer: 0.895 enrichment R

Question: B13 was tested. Which binding signal did it give?
Answer: 1.12 enrichment R

Question: With B14 as the binder, how does the binding signal read?
Answer: 1.04 enrichment R

Question: B15 was tested. Which binding signal did it give?
Answer: 1.26 enrichment R

Question: Which binding signal does the source give for B16 here?
Answer: 0.876 enrichment R

Question: Which binding signal does the source give for B17 here?
Answer: 0.716 enrichment R

Question: How did the binding signal turn out when B18 was run?
Answer: 1.07 enrichment R

Question: How did the binding signal turn out when B19 was run?
Answer: 0.883 enrichment R

Question: For B20, which binding signal is on record?
Answer: 0.958 enrichment R

Question: B21 was tested. Which binding signal did it give?
Answer: 0.964 enrichment R

Question: How did the binding signal turn out when B22 was run?
Answer: 0.73 enrichment R
